# The whole screen tested about 150,000 compounds, of which about 540 (0.36%) showed an effect of 50% or more. This is one part of the list.
# Test system: Plasmodium falciparum
# Test: Primary screen in NF54 nanoGlo assay, in single point, at 2uM, 72h; a lower Z score goes with more inhibition
# Type: functional, Erythrocyte
# Details: timepoint 72 hour
SMILES,% Inhibition [%],Z score
COc1cc(OC)c(NC(=O)N2CCN(c3cc(C)nc(N4CCOCC4)n3)CC2)cc1Cl,-12,1.93
Cc1nnc2c(NC(=O)Cc3c(F)cccc3Cl)cccn12,-14,2.11
O=C(Cc1cccc2ccccc12)Nc1ccccn1,-8,1.1
COc1ccc(OC)c(Cc2nnc(CCC(=O)NC3CC(C)(C)CC(C)(C)C3)o2)c1,-14,1.27
CCN(CC)C(=O)Nc1ccc(C(F)(F)F)nn1,-4,0.6
Cc1nc(CN(C(=O)c2cc(C3CC3)nc3ccccc23)C(C)C)no1,-10,1.34
Cc1nc2cc(NC(=O)c3cc[n+]([O-])cc3)ccc2o1,1,-0.13
CC(C)CN(CC(O)c1ccccc1)S(=O)(=O)c1cnn(C2CCOC2)c1 (stereo not drawn),-10,1.91
CCn1cc(CN(CCO)C(=O)c2cc(C)ccc2C2CC2)cn1,-18,2.18
COc1cc(C(=O)NCCC2=CC[C@H]3C[C@@H]2C3(C)C)ccc1OC1CCN(C)CC1,1,-0.21
CC(C)[C@H](NS(=O)(=O)CC1CCOCC1)c1ccccc1N,-3,0.43
COc1cccc2c(C)nc(NC3=NCN(Cc4ccc5c(c4)OCO5)CN3)nc12,-12,1.24
Cc1cc2ncc3c(n2n1)CCN(S(=O)(=O)c1cccc(Cl)c1C)C3,-5,0.7
Cc1ccc2oc(CN3CCN(C(=O)Nc4ccc(Br)cc4)CC3)nc2c1,-21,1.88
Cc1csc(C(C)CNC(=O)NC(C)C2CCOC2)n1 (stereo not drawn),3,-0.4
Cc1cc(=O)c(OCC(=O)Nc2ncc[nH]2)cn1C,1,-0.06
CC(=O)NC[C@H]1CCCN(c2nc3nonc3nc2N2CCCCC2)C1,-13,1.75
Cc1c(C(=O)N[C@@H]2CCC[C@@H]2n2ccnc2)nnn1-c1cnn(C)c1,-1,0.14
CC(C)C/C=C(\CN1C[C@H](N)[C@@H](O)C1)c1ccccc1,-6,1.17
CC[C@H](NC(=O)c1cc(C)nc(C)n1)C1CC(O)C1 (stereo partly drawn),-20,2.68
CCCc1cc(-c2ccnn2C(C)C)nc(C)n1,-17,1.63

SMILES,% Inhibition [%],Z score
Cc1cccc(CNS(=O)(=O)c2cc(C(=O)N3CCCCC3)cs2)c1,-11,1.11
O=C1CCC2(CCN1)CCN(C/C=C/c1ccccc1)CC2,-19,1.86
CCn1nc(C(=O)N2CC[C@H](Oc3ccc(C)cn3)C2)cc1C1CC1,3,-0.48
CN1N=C(C(=O)N2CCc3ccccc32)CCC1=O,-2,0.37
Cc1cccc(C(=O)N[C@@H](C)C(=O)Nc2nc3c(s2)CCC3)c1,-4,0.67
N#Cc1cccc(-c2ccnc(N[C@H]3CO[C@H]4[C@@H]3OC[C@@H]4NC(=O)c3ccc(C(F)(F)F)cc3)n2)c1,-7,1.07
Cc1n[nH]c(C)c1-c1cccc(C(=O)N(C)C)n1,-5,0.69
Cc1n[nH]c(=O)nc1N1CCC2(CC1)OCCO2,4,-0.55
COc1ccc(C[C@@H]2NC(=O)[C@H](C(C)C)NC2=O)cc1,-5,0.61
CN(Cc1ccon1)C(=O)C1CCC(NC(=O)CC2CCCCC2)CC1 (stereo not drawn),-2,0.38
CC(C)[C@H](NC(=O)Nc1cc(Cl)ccc1Cl)c1ncc[nH]1,-5,0.62
Cc1c(S(=O)(=O)N2CCC[C@@](CO)(CN(C)C)C2)sc2ccc(C#N)cc12,1,-0.17
NC(=O)C1(NC(=O)c2ccc3nc(-c4ccc(F)cc4)cn3c2)CCCC1,-24,2.53
Cc1c(-c2ccc(C(=O)NC[C@H]3CCCO3)cc2)cnn1C(F)F,9,-1.18
O=C(CN1C(=O)[C@@H]2CCCN2C(=O)c2ccccc21)Nc1ccc(F)c(F)c1F,-15,1.71
C[C@H]1CCc2ccccc2N1Cc1ccc(C(=O)O)o1,-8,0.79
O=C(Cn1ncccc1=O)N1CCC(Oc2cccc3cccnc23)CC1,-14,2.68
CC(C)c1cc(C(=O)N2CCCCCCC2)n(C)n1,-6,1.24
Cc1ccc(S(=O)(=O)NC(C)C)c(C)c1,31,-0.92
COc1ccc(N2CCN(C(=O)c3snc4c(=O)n(C)c(=O)[nH]c34)CC2)cc1,-7,1.19
COc1ccc(CC(=O)N2CC[C@@H](CC(=O)O)[C@@H](CCN(C)c3ccccc3)C2)cc1,-5,0.82

SMILES,% Inhibition [%],Z score
CC[C@@H](C(=O)Nc1cc(OC)ccc1OC)n1nc(C)c2c(C)onc2c1=O,-12,1.21
O=C(c1coc(Br)c1)N1C2COCC1C2,-10,1.26
COc1cccc(CCCN(CCCO)Cc2ccccn2)c1,-5,0.8
O=C(CN1C(=O)C2(CCCC2)N=C1O)N1CCC(Cc2ccccc2)CC1,31,-3.5
CCOC(=O)c1cnn(CN(CC)CC(F)(F)F)c1C(F)F,5,-0.51
CCn1c(C(=O)NCCN2CCOCC2)cc2cc(NC(=O)c3ccco3)ccc21,-1,0.1
Nc1cc(N2C[C@H](O)[C@@H](F)C2)nc(N2CCOCC2)n1,-9,0.99
CC[C@H](C)NC(=O)c1cc(NS(=O)(=O)c2ccc3c(c2)CCCC3)ccc1N1CCNCC1,-10,1.21
COC(=O)c1ccc(C(=O)Nc2nc(-c3cccc4ccccc34)cs2)cc1,-2,0.4
CC(C)(C)c1nc(CN2CCN(c3ncccn3)CC2)no1,-2,0.28
Cc1ccc(-n2nc3c(=O)n(CCCC(=O)N4CCc5ccccc5C4)nc(C)c3c2C)cc1,18,-2.11
COc1cccc(CNC(=O)N2CCC[C@H](Oc3nc(C(C)C)nc4c3CCOCC4)C2)c1,-5,0.74
CCCc1noc(-c2ccnc(-n3cnc(C(=O)N4CCC[C@H](C)C4)c3)c2)n1,-6,1.13
Cc1ccccc1C(=O)N1C[C@H](O)C[C@H]1c1n[nH]c(-c2ccccc2)n1,-2,0.3
CC(=O)N1CCC(NC(=O)COc2ccc(-c3ccccc3)cc2Cl)CC1,-11,1.5
COc1cc2c(cc1-c1nccn1CCc1nc3ccccc3[nH]1)OCO2,3,-0.32
Cc1c(Cl)cnn1Cc1nnc(-c2ccc(Cl)cc2)o1,3,-0.43
Clc1cccc(COc2ccccc2CNc2nc[nH]n2)c1,38,-4.29
CC(C)Oc1ccc(Br)cc1N,-16,2.15
CCCc1cncnc1N[C@H]1C[C@@H](c2cc(N3CCOCC3)ncn2)C1,-17,1.94
Cn1nnnc1Cn1ccc(C(F)(F)F)cc1=O,-10,1.32

SMILES,% Inhibition [%],Z score
Cc1n[nH]c(C)c1S(=O)(=O)Nc1ccc(-c2ccccc2)cc1,-4,0.55
C[C@@]1(C(=O)NC2CCCCCC2)CN(S(=O)(=O)c2ccccc2)CC(=O)N1c1ccccc1F,-2,0.31
COc1ccc(CN2CC[C@H](c3nnc(-c4ccccc4OC)o3)C2)cc1,17,-1.96
CN1CCC2(CCCN2Cc2nc(-c3ccccc3)cs2)CC1,6,-1.01
Cc1cc(CS(=O)(=O)Cc2ccccc2)no1,-10,0.96
CCn1ncc2ncn(Cc3ccon3)c(=O)c21,-15,2.57
CCc1noc(CN(C2CC2)[C@H]2CCc3ccccc32)n1,-6,0.52
CN(C)S(=O)(=O)c1ccc2c(c1)nc(C(F)(F)F)n2CCC(=O)Nc1ccccc1Cl,-8,0.83
CC1=C(C(=O)Nc2ccccc2C)C2(CCCC2)[C@@H](C(N)=O)C(=O)N1,-3,0.61
Cc1cccc(N(C)CCN2CCOCC2)n1,-16,2.2
CN1CCCC(CN)C1c1cccc(Cl)c1 (stereo not drawn),-5,0.6
Cc1cccc(CNC(=O)[C@H]2CCCN(C3CCN(Cc4ccncc4)CC3)C2)c1,-4,0.78
c1ccn2ncc(-c3nc([C@H]4CCOC4)no3)c2c1,-9,1.68
C=CCN1CCC(Nc2cnc3ccccc3n2)CC1,5,-1.06
Cc1ccc(O)c(C(=O)NC2=CCC(=O)N2)c1,-11,1.73
CC1CC(=O)N(CC(O)COc2cccc3[nH]ccc23)C1=O (stereo not drawn),-4,0.74
COc1ccccc1CC(=O)NCc1nc(N(C)C)nc(N(C)C)n1,7,-1
Cc1ccc(CNC(=O)N2CCc3c(c(-c4nncn4-c4ccccc4)nn3C)C2)cc1,7,-0.9
CN(CCc1ccccn1)Cc1csnn1,-2,0.34
CCOc1cc2cc(c1)C(=O)N(C)CC(=O)N[C@@H]1CN(C(=O)CCOc3ccccc3)CC[C@@H]1OCc1cccc(c1)O2,5,-0.7
CCC(C)(C)NS(=O)(=O)c1cc2[nH]c3c(c2cc1C)C(=O)CC(C)(C)C3,-11,2.19
